# The full ranking holds about 33,000 sequences; the median of “E-score (-0.5 to 0.5)” is about -0.054, and the highest 2% start at about 0.39. Some of the results follow.
# Biological target: Ylr278c (UniProt Q05854)
# Assay: PBM E-score (8-mer binding enrichment) (E-score (-0.5 to 0.5)); higher = stronger / more preferred TF binding; most listed sequences are background and not binding sites
# Details: protein concentration: 200 nM; construct: GST-DNA-binding domain
# Method in brief: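 The E-score, a modified Wilcoxon-Mann-Whitney statistic, was computed by the Universal PBM Analysis Suite for every ungapped eight-base word pooled with its reverse complement. Scans behind it were normalised with masliner after bound GST-tagged yeast transcription factors were detected with fluorescent anti-GST. The proteins, at about 100-200 nM, had been applied to universal all-10-mer Agilent arrays made double-stranded by primer extension.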
row,Sequence,PBM E-score
1,CGTGGCTC,-0.238
2,ATTACTCG,-0.025
3,ATACTGTG,-0.194
4,ATCATTAC,-0.0708
5,CCGCATTC,0.215
6,ACCACTCA,-0.259
7,CCTCGCCC,-0.0519
8,AAGCCAGC,-0.207
9,CTTCTATC,-0.00777
10,CCGGCCTA,0.287
11,ATCGTCAG,-0.24
12,CTACTGCA,-0.384
13,ATCACTGA,-0.195
14,GAAATATA,0.189
15,CAAGAGAG,-0.172
16,CGCCTGTC,-0.0687
17,CAGTCAGG,-0.187
18,TAGATACA,-0.295
19,AAGGCGTC,-0.192
20,AACCACAG,-0.188
21,GTCGAGGA,-0.264
22,ACCATGCC,0.072
23,CAGGCCGG,0.176
24,ACGAAATA,-0.0959
25,GCCGTACC,0.213

row,Sequence,PBM E-score
1,CAGTCCGA,0.402
2,CCGTGGAG,0.23
3,CCTGCCCA,-0.275
4,CCCTCATC,-0.199
5,CATGCGAA,-0.00394
6,CTGTAAAG,-0.00462
7,CCTCGCAG,-0.0589
8,ACGCCAAT,-0.107
9,ATTGTGAG,-0.0852
10,AATAGACG,0.0829
11,AACTGCCA,-0.249
12,AGCGCATA,-0.0726
13,CGCTCAGA,-0.0763
14,CCTTCGGA,0.424
15,AGCATACG,0.0274
16,ATCCCACG,-0.14
17,CTTAGGTC,-0.00439
18,CCTATAGC,-0.344
19,ACGTCATA,-0.112
20,CTAATATC,0.0812
21,GCCAGATA,-0.141
22,ACCATCAA,-0.175
23,CCGTCAGC,0.128
24,CTCACTAA,-0.0701
25,CGACTTTC,0.158

row,Sequence,PBM E-score
1,GCACAGTA,-0.245
2,CATGGGAC,-0.146
3,GCAGGGCC,-0.0627
4,AACGGTCA,0.103
5,AGTCCTTG,-0.206
6,GATGGCAA,0.00399
7,GGACGGAC,0.359
8,TAAAGCTA,-0.357
9,CGCCGCTA,0.328
10,AGTGCCCA,-0.038
11,CGCAAGAA,0.0704
12,CCGAGACG,0.134
13,AACTGCCG,0.212
14,GCAAGAAA,-0.00183
15,ATCGTATC,-0.115
16,AATACCGG,0.416
17,TTAATCAA,-0.0824
18,CCGAGACC,0.31
19,GTACTATA,0.0927
20,CAGGAAAC,-0.137
21,AACTTACG,-0.0452
22,AAGTTGAC,-0.179
23,CATCACCC,0.123
24,GGAGCAAC,0.227
25,ACAGCGCT,-0.0073

row,Sequence,PBM E-score
1,CAAAAGCA,-0.161
2,GTGAAAAC,0.0583
3,AGCGAAGC,-0.0178
4,GGGAAACC,0.169
5,AAATCCGG,0.474
6,GAACCGAA,0.0439
7,AGGTAAAT,-0.114
8,CGGGGCTC,0.226
9,GGTGATAA,0.0744
10,CTAAACAA,-0.108
11,ATCCCCCG,0.3
12,ACCAACCT,-0.119
13,CGAGGGGA,0.0236
14,CGTTAATC,0.0727
15,GCTATTAC,-0.135
16,GGGAATAC,0.176
17,GGATGCCA,-0.277
18,GGTCAGTA,0.0032
19,ACAGTCTA,-0.204
20,CCACTTGA,0.043
21,TAGCACTA,-0.23
22,TCATAAAA,-0.0551
23,CCGCGGGC,0.367
24,CTAAATGA,-0.114
25,AAGCCCTC,-0.184

row,Sequence,PBM E-score
1,AAAGTGGT,-0.15
2,ACACATAC,-0.102
3,ATCAAGCC,-0.148
4,ATCTCTGA,-0.187
5,CCTAACCG,-0.0385
6,CAAAACGG,-0.0308
7,GCTCTTCC,0.0931
8,AAACCGAC,0.0773
9,ACTTGAAG,-0.253
10,ATTCATCG,-0.0157
11,CGTGCCGC,0.12
12,ACACTGAG,-0.245
13,CAGAAACA,-0.241
14,GCAAACTA,-0.206
15,AATCCGAT,0.421
16,GGACTGAA,-0.00012
17,CCAGTGTC,-0.163
18,AGCGGTTC,-0.106
19,ACACCTAA,-0.13
20,ACGGAATG,0.183
21,ACAGATGA,-0.125
22,AACACCCT,-0.114
23,ACGGGGAA,0.294
24,AAACCAGA,-0.219
25,AGCGATGC,-0.164

row,Sequence,PBM E-score
1,GCGTGGCC,-0.101
2,ATTGGTAA,0.00594
3,AGAATCAT,-0.29
4,CTCGAGCA,-0.0715
5,CGGCCTTA,0.352
6,ACAAGTGC,-0.268
7,CTTCATCC,0.0404
8,GCACAGAA,-0.04
9,AGACGATC,-0.101
10,ACTGGGAC,-0.157
11,CCGGAGTA,0.485
12,CATACCAA,0.0519
13,CTGCGTTC,0.0197
14,GCACAGCA,-0.0511
15,AACAACGT,0.00168
16,CCCGCGGG,0.363
17,ATCGTCTG,-0.113
18,GGACCGTA,-0.0273
19,ACGTGCCA,-0.147
20,GGCGGCCA,0.051
21,TATACTAA,-0.103
22,ATATTCGG,0.203
23,ATTTACGC,0.138
24,GCTTGCTA,-0.297
25,AGTTGAGA,-0.155

row,Sequence,PBM E-score
1,GGCGCCAA,0.0842
2,CGTCAGTC,-0.0105
3,AAGTTTCA,-0.0249
4,CGCACACA,-0.0811
5,ACTATATA,-0.0313
6,CCCGACCC,0.125
7,ACCGAGTC,-0.0262
8,ACCGACAG,0.158
9,CTGATAAA,-0.0956
10,AGGCCCAG,-0.0998
11,GATAGCCA,0.0138
12,CATGCTAC,-0.198
13,CGCTACGA,-0.00606
14,CGTGCCCC,-0.149
15,CACAGGAG,-0.115
16,CTCGAACC,-0.104
17,CTGTGTGC,-0.249
18,TAACAGTA,-0.262
19,ACAGTCAA,-0.188
20,ACGTTACT,-0.184
21,CATTGTCG,0.0388
22,AACACAAA,-0.106
